About 1,700 (3.3%) of roughly 52,000 compounds were called active. Cut-off read from the data, not from the text of the source: active = survival mostly below about 52% (no sharp cut-off); inactive = mostly above about 56%. This is one part of the list.

Survival data for 89 molecules are collected here from PubChem BioAssay AID463173 (ICCB-Longwood Screening Facility, Harvard Medical School, 2010).

The experiment deals with Wild type. Briefly: S. aureus survival, RN4220 and DeltatarO strains – OD600, teichoic acid synthesis inhibitors, primary screen (AID 463173). Conditions: S. aureus RN4220 wild type/DeltatarO growth, OD600, 18 h, stronger effect = lower value, screened at 18.75 µg/mL (by protocol).
As to `CCc1nc2sc3c(N4CCCCC4)ncnc3c2c2c1CCCC2`, the survival is inactive: 136%.

Take `COc1cccc(/C=C(\C#N)C(=O)Nc2ccc(NC(C)=O)cc2)c1OC`: the survival was inactive: 80%.

Consider `O=C(CCC1N=C2c3ccccc3N=C(SCc3cccc(Cl)c3)N2C1=O)NCCc1ccccc1` (centres undefined), for which the survival was inactive: 71%.

For `COc1ccc(NC(=O)CCS(=O)(=O)c2ccc3c(c2)n(C)c(=O)c(=O)n3C)cc1Cl`, the survival is inactive: 89%.

On to `Cc1oc(-c2cccc(Br)c2)nc1Cn1c(SCc2cccc(F)c2)nc2cccnc21`, for which the survival was inactive: 69%.

As to `CCC(C)[C@H](N)c1nnc(SCc2ccc(Cl)c(Cl)c2)o1` (some centres undefined), the survival is inactive: 46%.

On to `CCC(C)(C)n1nnnc1C(c1ccc(Cl)cc1)N1CCN(c2nc3ccccc3s2)CC1` (centres undefined), for which the survival was inactive: 108%.

Regarding `COc1ccc(Br)cc1CNC(=O)CSc1n[nH]c(-c2ccccc2)n1`, the survival was inactive: 69%.

On to `CC1=C(C(=O)Nc2ccccc2)C(c2ccc(O)cc2)n2nc(-c3ccc(Cl)cc3)nc2N1` (centres undefined), for which the survival is inactive: 82%.

`CCn1c(CN2CCCCC2)nc2cc(NC(=O)COc3ccc(C(C)(C)C)cc3)ccc21`: the survival is inactive: 97%.

With `Cc1oc2ccc(O)c(CN3CCC(C)CC3)c2c1C(=O)Nc1ccccc1`, the survival is inactive: 87%.

On to `Cc1ccc(S(=O)(=O)NCCSc2nnnn2-c2ccccc2)cc1`, for which the survival is inactive: 96%.

As to `COc1ccc2c(c1)NC(c1ccc(Cl)cc1)=NC(c1cccs1)=N2`, the survival is inactive: 49%.

`CC(C)CC1CC(C)(C(=O)CSc2n[nH]c(-c3ccccc3)n2)OC1=O` (centres undefined): the survival was inactive: 123%.

As to `CCCN1C(=O)C(Cc2nc3ccccc3c(=O)n2CC)c2cc(Br)ccc21` (centres undefined), the survival is inactive: 38%.

`Cc1ccc2[nH]cc(C(=O)N3CCCCC3)c(=O)c2c1`: the survival was inactive: 94%.

In the case of `Cc1sc(NC(=O)Nc2ccccc2)c(C(N)=O)c1C`, the survival was inactive: 123%.

For the molecule `CC(C)(C)c1ccc(-c2nnc(-c3ccccc3NC(=O)c3cccc(C(F)(F)F)c3)o2)cc1`, the survival was inactive: 75%.

Consider `Cc1ccc(C)c(Cn2c(=O)n(Cc3ccccc3)c(=O)c3sc4ccccc4c32)c1`, for which the survival was inactive: 86%.

Turning to `OCCNc1nc(N2CCOCC2)ncc1F`, the survival is inactive: 85%.

On to `Cc1ccc(/C=C/c2onc(C)c2S(=O)(=O)N2CCC(C(=O)NCc3ccco3)CC2)cc1`, for which the survival is inactive: 83%.

Consider `Cc1cc(C)cc(NS(=O)(=O)c2ccc(-c3cc(C)no3)cc2)c1`, for which the survival was inactive: 47%.

As for `Cc1ccc(CCNC(=O)c2ccc3c(c2)N(Cc2cc(C)ccc2C)C(=O)c2ccccc2S3=O)cc1` (centres undefined), the survival was inactive: 81%.

On to `CCN(CC)c1ccc(NC(=O)CN2C(=O)c3cccnc3Oc3ccccc32)c(C)c1`, for which the survival is inactive: 135%.

`COc1ccc2c(c1)NC(c1ccc(F)cc1)=NC(c1ccc(F)cc1)=N2`: the survival is inactive: 93%.

For `CCCNC(=O)C1CCN(S(C)(=O)=O)CC1`, the survival was inactive: 107%.

Consider `CCOC(=O)c1cccc(NS(=O)(=O)c2cc(Br)cc3c2N(C(=O)C2CC2)CC3)c1`, for which the survival was inactive: 151%.

Turning to `COc1cccc(N2CCN(C(=O)CN3CCSc4ccc(S(=O)(=O)N(C)C)cc43)CC2)c1`, the survival was inactive: 72%.

For the molecule `COc1ccc(NC(=O)C2CCN(C3=NS(=O)(=O)C(c4ccc(C)c(C)c4)=C3C)CC2)cc1OC`, the survival is inactive: 99%.

For the molecule `COC(=O)c1ccc(OCC2c3cc(OC)c(OC)cc3CCN2C(=O)c2cccc(C)c2)cc1` (centres undefined), the survival was inactive: 110%.

Consider `CCn1nnnc1SCC(=O)c1ccc(NC(C)=O)cc1`, for which the survival was inactive: 110%.

Regarding `COc1ccc(CNC(=O)CCS(=O)(=O)c2cc(Br)cc3c2N(C(=O)C2CC2)CC3)cc1`, the survival was inactive: 83%.

Take `CCCCN(Cc1ccccc1)S(=O)(=O)c1ccc2c(c1)CCN2C(=O)C1CCC1`: the survival is inactive: 74%.

Take `CCCCC(=O)Nc1ccc(NC(=O)C2CC2)nc1`: the survival was inactive: 101%.

In the case of `COc1cccc(CNC(=O)Cn2c(=O)n3nc(-c4cccc(C)c4)nc3c3ccccc32)c1`, the survival is inactive: 92%.

As for `O=C(Cn1nc(Cc2cccnc2)c2ccccc2c1=O)N1CCN(c2ccc(F)cc2)CC1`, the survival was inactive: 89%.

As to `COc1ccc(Nc2ncnc3onc(C)c23)cc1Cl`, the survival is inactive: 85%.

As for `CCCSCCCNC(=O)C1CCCN(C(=O)c2cnn(-c3ccccc3)c2-n2cccc2)C1` (centres undefined), the survival is inactive: 107%.

On to `COCCCNC(=O)CCCN1C(=O)CCn2nc(-c3cn(C)c4ccccc34)cc21`, for which the survival was inactive: 78%.

On to `Cc1ccc(C)c(N2CCN(CCCNc3ncnc4onc(-c5ccc(Cl)cc5)c34)CC2)c1`, for which the survival was inactive: 75%.

On to `COc1ccc(-c2ccnc3c2c(=O)n(C)c(=O)n3C)cc1OC`, for which the survival is inactive: 70%.

In the case of `CCN(C(=O)C(NS(=O)(=O)c1cccc2nsnc12)c1ccccc1)c1ccccc1` (centres undefined), the survival was inactive: 117%.

Regarding `COc1ccc(OC)c(CNC(=O)CCS(=O)(=O)c2ccc3c(c2)oc(=O)n3C)c1`, the survival is inactive: 72%.

As to `Cc1ccc(NC(=O)[C@H](CSCc2ccccc2)N2Cc3ccccc3C2=O)cc1`, the survival was inactive: 84%.

With `Cc1ccc(C(=O)N2c3nc(-c4ccco4)nn3C3(CCCCC3)[C@@H]3CCCC[C@@H]32)cc1`, the survival was inactive: 77%.

With `Cc1cc(Nc2ccc(C)c(Cl)c2)n2nc(-c3ccccc3)nc2n1`, the survival is inactive: 90%.

With `Cc1cc(C)c(NC(=O)CN2C(=O)c3cccnc3Oc3ccc(Cl)cc32)c(C)c1`, the survival was inactive: 74%.

As to `O=C(Cc1ccc(Cl)cc1)NCCN1CCOCC1`, the survival was inactive: 124%.

On to `CC1CCN(S(=O)(=O)c2cccc(C(=O)NC3CCS(=O)(=O)C3)c2)CC1` (centres undefined), for which the survival was inactive: 81%.

For the molecule `NC(=O)CCN1CCOCC1`, the survival is inactive: 102%.

Consider `CSc1nc(NC(C)C)nc(N(C)C(N)=O)n1`, for which the survival is inactive: 122%.

In the case of `O=C(CSc1nnc(-c2cccnc2)o1)OC1CCCCC1`, the survival was inactive: 103%.

Consider `O=C(CCNS(=O)(=O)c1cccc2nsnc12)Nc1ccc(F)cc1`, for which the survival is inactive: 64%.

Take `Cn1c(=O)c2c(-c3ccccc3)n3c(c2n(C)c1=O)C(c1cc(Cl)ccc1O)Nc1ccccc1-3` (centres undefined): the survival is active: -9%.

On to `COc1ccc(-c2nc3cc(NC(=O)COc4ccc(F)cc4)ccc3o2)cc1`, for which the survival was inactive: 87%.

With `CN1/C(=N\N)c2cccc3cccc1c23`, the survival was inactive: 120%.

On to `COc1ccc(S(=O)(=O)N2CCC(C(=O)N3CCCC3)CC2)cc1OC`, for which the survival is inactive: 107%.

On to `CN1C(=O)CSC1=Nc1cccc(C(=O)O)c1`, for which the survival is inactive: 104%.

As for `Cc1csc2nc(-c3cccc(NC(=O)c4ccc(S(N)(=O)=O)cc4)c3)cn12`, the survival was inactive: 124%.

As for `Cc1ccc2cccc(NC(=O)c3ccc(-c4ccc(Cl)cc4Cl)o3)c2n1`, the survival is inactive: 69%.

Consider `COc1ccc(OC)c(CNC(=O)c2cc(=O)[nH]c3ccc(S(=O)(=O)N4CCCCC4C)cc23)c1` (centres undefined), for which the survival was active: 1%.

Regarding `COc1ccccc1/C=C(\C#N)c1nc(-c2cc3ccccc3oc2=O)cs1`, the survival is inactive: 81%.

Take `CCC(=O)Nc1ccc(S(=O)(=O)NCc2cccn2Cc2cccc(C)c2)cc1`: the survival was inactive: 87%.

As for `CCOc1ccc(-c2cc(C)n3nc(C(=O)Nc4cc(Cl)ccc4O)cc3n2)cc1`, the survival was inactive: 87%.

In the case of `COc1cccc(NC(=O)Cn2c(=O)n(Cc3nc(-c4ccccc4)no3)c(=O)c3ccccc32)c1`, the survival is inactive: 91%.

For the molecule `O=C(NCCC1=CCCCC1)c1ccc2c(c1)ncn2-c1cccc(Cl)c1`, the survival is inactive: 73%.

As for `CCc1ccccc1NC(=O)CSc1ncc2c(n1)-c1ccccc1N(C)S2(=O)=O`, the survival was inactive: 130%.

Consider `Cc1ccc(C(=O)NC(C)C)cc1C`, for which the survival is inactive: 110%.

Consider `COc1ccc(S(=O)(=O)NCCc2sc(-c3ccccc3)nc2C)cc1OC`, for which the survival was inactive: 78%.

For the molecule `CCOC(=O)N1CCC(NC(=O)c2cnn(-c3ccccc3)c2C2CCN(C(=O)OC(C)(C)C)CC2)CC1`, the survival is inactive: 128%.

Take `COc1ccc(CNC(=O)CN2C(=O)COc3ccc(S(=O)(=O)N4CCCCCC4)cc32)cc1`: the survival was inactive: 87%.

For `COC(=O)c1sccc1S(=O)(=O)N(CC(=O)Nc1cc(C)cc(C)c1)c1ccc(Cl)cc1`, the survival was inactive: 85%.

As to `COc1ccc(-n2c(SCC(=O)NCc3ccccc3)nc3ccsc3c2=O)cc1`, the survival was inactive: 85%.

Turning to `CC(C)C(=O)Nc1cccc(C(=O)Nc2nncs2)c1`, the survival was inactive: 99%.

`Cc1ccc(C2Nc3ccccc3-n3c(-c4ccccc4)c4c(=O)n(C)c(=O)n(C)c4c32)cc1` (centres undefined): the survival was active: -8%.

For the molecule `COc1ccc(NC(=O)c2nn(C)c3c2CSc2ccc(C)cc2-3)cc1OC`, the survival was inactive: 68%.

With `COCCCNC(=O)c1ccc(Cn2c(=O)c3ccccc3n(Cc3ccc(C)cc3)c2=O)cc1`, the survival was inactive: 74%.

On to `COc1ccc(CNC(=O)c2ccc(CNS(=O)(=O)c3ccc(OC)cc3)cc2)cc1`, for which the survival is inactive: 86%.

In the case of `COc1cccc(NC(=O)c2ccc3c(=O)n4nc(Nc5ccccc5OC)sc4nc3c2)c1`, the survival was inactive: 76%.

Take `CCOC(=O)c1ccc(NC(=O)CC2Nc3cc(C)c(C)cc3NC2=O)cc1` (centres undefined): the survival was inactive: 75%.

With `COCCOC(=O)Cn1nnc2sc(-c3ccccc3)cc2c1=O`, the survival was inactive: 83%.

`Cc1nn(S(=O)(=O)c2ccc(C(C)C)cc2)c(C)c1S(=O)(=O)N1CCCCC1`: the survival was inactive: 55%.

Take `Cc1ccc2c(c1)-c1c(cnn1CC(=O)N1CCN(c3cccc(C(F)(F)F)c3)CC1)CO2`: the survival is inactive: 54%.

For the molecule `CC(=O)N1CCCc2cc(S(=O)(=O)N3CCCC(C(=O)N4CCN(c5ccccc5F)CC4)C3)ccc21` (centres undefined), the survival is inactive: 73%.

With `Cc1nc(SCC(=O)OC(C)(C)C)c2c3c(sc2n1)CCCC3`, the survival was active: 15%.

In the case of `O=C(c1nn2c(c1Cl)NC(c1cccs1)CC2C(F)(F)F)N1CCOCC1` (centres undefined), the survival was inactive: 103%.

For `CCc1cccc(C)c1NS(=O)(=O)c1ccc2c(c1)NC(=O)C(C)C(=O)N2` (centres undefined), the survival was inactive: 127%.

As for `CCOc1ccc(-n2c(=O)c3c4c(sc3n(CC(=O)NCCCOC)c2=O)CCCCC4)cc1`, the survival was inactive: 117%.

On to `Cc1ccc(CNC(=O)c2c(-c3ccc(F)cc3F)noc2C)o1`, for which the survival was inactive: 85%.
